# Source: PubChem BioAssay AID1346428 (National Center for Advancing Translational Sciences (NCATS), 2018)
# “And” between values parts separate entries of the source, which are not always exact repeats. Identical values can stand only once. The whole screen tested about 48,000 compounds, of which about 1,200 (2.5%) were called active. Not shown: some 2% with an inconclusive outcome.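 The calls were made as follows: active = activation of at least 60% and not above a set upper limit (about 1 call in 100 departs from these limits); inconclusive = activation of 40% to 60%, or above that upper limit; inactive = activation under 40%.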 The list shows a part of the results.
# Molecular target: Probable G-protein coupled receptor 32 (Homo sapiens) (UniProt O75388)
# Assay: qHTS for Agonists of Human Resolvin D1 Receptor DRV1; also: 0% is about no effect
# Conditions: CHO-K1 GPR32 beta-arrestin PathHunter luminescence, 90 min; at 76.9 µM; active compounds read high; zero percent set by DMSO-only wells
# Outline: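 Beta-arrestin recruitment read-out: luminescence from complemented beta-Gal in CHO-K1 GPR32 PathHunter cells, measured 1 h after detection reagent at ambient temperature following 90 min compound exposure at 37 °C; DMSO served as basal (EC0) control.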
# Chain of UniProt O75388 (O75388 whole entry, looked up): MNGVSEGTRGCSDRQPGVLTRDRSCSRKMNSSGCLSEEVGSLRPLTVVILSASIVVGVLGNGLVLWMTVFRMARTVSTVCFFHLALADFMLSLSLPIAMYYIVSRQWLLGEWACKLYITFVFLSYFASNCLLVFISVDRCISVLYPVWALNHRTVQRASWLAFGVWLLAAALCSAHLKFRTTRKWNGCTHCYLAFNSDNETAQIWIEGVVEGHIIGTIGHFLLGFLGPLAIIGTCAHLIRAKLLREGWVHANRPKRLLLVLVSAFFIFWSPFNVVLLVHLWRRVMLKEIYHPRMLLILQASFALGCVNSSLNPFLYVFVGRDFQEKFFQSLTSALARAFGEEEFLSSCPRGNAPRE
row,Compound,activation
1,CCOC(=O)C1CCN(C(=O)c2nn(-c3ccc(OC)c(Cl)c3)c(=O)c3c2c2ccccc2n3C)CC1,inactive: -8.17%
2,Cc1ccc(Cl)cc1NC(=O)CSc1nc2ccccc2c2nc(-c3ccccc3)nn12,inactive: -16.7%
3,CCOc1ccc(C(=O)Nc2cc(-c3nc4cc(OC)ccc4o3)ccc2C)cc1[N+](=O)[O-],inactive: 10.4%
4,Cc1ccc(S(=O)(=O)c2cn(CC(=O)Nc3cccc(Cl)c3)c3ccccc3c2=O)cc1,inactive: -4.31%
5,CC1(C)N=C(SCc2ccc(F)cc2)c2ccccc2N1,inactive: -2.75%
6,O=C(Cn1cc(C(=O)C(F)(F)F)c2ccccc21)N1CCCCCC1,inactive: -12.5%
7,CC1CCCCN1CCCNC(=O)c1cc(Sc2cccc(Cl)c2)nc2ccccc12 (centres undefined),inactive: -13.7%
8,CCOc1ccccc1NC1(c2ccccc2)C(=O)c2ccccc2C1=O,inactive: -32.2%
9,Cc1ccccc1CN1c2ccccc2-c2nc(SCC(=O)c3ccccc3)ncc2S1(=O)=O,inactive: 1%
10,O=C(COc1ccc2ccccc2c1)NC1CC(=O)N(c2ccc(F)cc2)C1 (centres undefined),inactive: 17.9%
11,Cc1nc2sccn2c(=O)c1CCN1CCC(=C(c2ccccc2)c2ccc(F)cc2)CC1,inactive: -12.9%
12,Cc1ccccc1OCc1nc2c3cnn(-c4cccc(F)c4)c3ncn2n1,inactive: -11%
13,Cc1c(CNC2CCCCC2)c(C(=O)O)c(C)n1Cc1ccccc1F,inactive: 19.1%
14,CCNC(=O)c1ccc2c(c1)nc1n2CCCCC1,inactive: -13.3%
15,COC(=O)c1c(NC(=O)/C(C#N)=C/c2ccc(OC)cc2)sc2c1CCC2,inactive: -20.3%
16,O=C1CN(/N=C/c2ccc([N+](=O)[O-])o2)C(=O)N1,inactive: -1.38%
17,O=C(NC1CC(=O)N(c2ccccc2)C1)C(c1ccccc1)c1ccccc1 (centres undefined),inactive: -8.08%
18,O=C(CSc1nc2nccnc2c(=O)n1CCc1c[nH]c2ccccc12)Nc1ccccc1,inactive: 25%
19,COc1ccc(S(=O)(=O)N2CCC(N3CCN(Cc4ccc(F)cc4)C(=O)C3=O)CC2)cc1,inactive: -10.3%
20,Cc1c(CCNC(=O)c2ccc(Br)o2)sc2nc(-c3ccc(Cl)cc3)nn12,inactive: 1.65%
21,Cc1ccc(C(=O)N2CCCCC2)cc1NC(=O)c1nsc2ccccc12,inactive: -13%
22,O=C(Nc1ccccc1C(F)(F)F)C1CCN(S(=O)(=O)Cc2ccccc2)CC1,inactive: -8.05%
23,CCc1ccc(C(=O)c2cn(CC(=O)Nc3cc(OC)ccc3OC)c3nc(C)ccc3c2=O)cc1,inactive: 34.7%
24,NC(N)=NC(=O)c1nc(Cl)c(N2CCCCCC2)nc1N,inactive: 37.7%
25,Cc1oc2cc3oc(=O)c(CC(=O)NCc4ccccc4)c(C)c3cc2c1C,inactive: -13.8%
26,CC1=C(CC(=O)O)c2cc(F)ccc2/C1=C\c1ccc(S(C)(=O)=O)cc1,inactive: -24.6% and inactive: -48.9%
27,COc1cccc(NC(=O)c2oc3ccccc3c2NC(=O)c2ccc(F)c(F)c2)c1,inactive: -3.28%

row,Compound,activation
1,Cc1ccc(C)c(NC(=O)c2ccc3c(c2)CCCN3S(C)(=O)=O)c1,inactive: 3.59%
2,Cc1ccc(-n2c(=O)c3sc4ccccc4c3n(C)c2=O)cc1F,inactive: -1.96%
3,Cc1ccc(-c2onc(C)c2C)cc1S(=O)(=O)N1CCOc2ccc(Cl)cc21,inactive: 7.98%
4,COc1ccc(-n2c(SCC(N)=O)nc3c(oc4ccccc43)c2=O)cc1,inactive: -17.7%
5,CC(=O)N1CCc2c(sc3c2c(=O)n(Cc2ccccc2)c(=O)n3Cc2ccccc2F)C1,inactive: -21.8%
6,O=C(Cc1cccs1)Nc1c(C(=O)Nc2ccc(F)cc2)oc2ccccc12,inactive: -6.53%
7,CC(C)CN1CCc2nc(Nc3ccc(F)cc3F)ncc2C1,inactive: -30.2%
8,Cc1ccccc1OCC(O)CO (centres undefined),inactive: -2.37%
9,CCC(Sc1nc(-c2ccc(F)cc2)nc2c1Cc1c(CO)cnc(C)c1O2)C(=O)Nc1ccc(F)cc1 (centres undefined),inactive: 4.97%
10,COc1c(Cl)cc(C(=O)N(Cc2ccccc2F)C2CCS(=O)(=O)C2)cc1Cl (centres undefined),inactive: -10.8%
11,COc1ccc(CCC(=O)NCc2ccc3c(c2)CCN3C(=O)c2ccccc2)cc1,inactive: -28.4%
12,CCS(=O)(=O)N1CCc2cc(C(=O)N3CCN(c4ccccc4OC)CC3)ccc21,inactive: 19.9%
13,CC(C)(C)OC(=O)N1CCc2nc(N3CCN(c4ncccn4)CC3)ncc2C1,active: 62.3%
14,Cn1c(=O)c2c(nc(SCC(=O)Nc3ccc(F)cc3)n2Cc2ccccc2F)n(C)c1=O,inactive: 11.7%
15,COc1ccc(C(CNC(=O)c2ccc(F)cc2)N2CCCC2)cc1 (centres undefined),inactive: -13.8%
16,CCOc1ccc2nc(NC(=O)c3nc(SCc4ccccc4C)ncc3Cl)sc2c1,inactive: 1.75%
17,CCCSc1ncc(Cl)c(C(=O)Nc2c(C(=O)c3ccc(C)cc3)oc3ccccc23)n1,inactive: -0.669%
18,CCC(=O)N1c2ccc(S(=O)(=O)CCC(=O)N3CCN(c4cc(C)ccc4C)CC3)cc2CC1C (centres undefined),inactive: -0.194%
19,Cc1cc(C)cc(NC(=O)N2CCC(CN3CCCCCC3)CC2)c1,inactive: -27.2%
20,CCOC(=O)N1CCN(Cc2nc3cc([N+](=O)[O-])ccc3n2C(C)C)CC1,inactive: -0.279%
21,CC(C)c1nc2ccc(C(=O)NCCCN3CCN(c4cccc(Cl)c4)CC3)cc2o1,inactive: -2.85%
22,Cc1cccc(N2CCN(C(=O)CN3C(=O)COc4ccc(S(=O)(=O)N5CCC(C)CC5)cc43)CC2C)c1 (centres undefined),inactive: -18.1%
23,CCOc1ccc(CNC(=O)c2cnc3sc(N4CCOCC4)nn3c2=O)cc1OC,inactive: -9.65%
24,CCOc1ccc(CCNC(=O)c2nc(-c3cccc(F)c3)n3c2CCCCC3)cc1OCC,inactive: -36.8%
25,CCOC(=O)C1CCC(CN(Cc2ccc(Cl)cc2)S(=O)(=O)c2cc(Cl)cc(Cl)c2)CC1 (centres undefined),inactive: 11.4%
26,Cc1cccc(N2CCN(C(=O)C3CCCN(S(=O)(=O)c4ccc(Br)s4)C3)CC2)c1C (centres undefined),inactive: -6.62%
27,Cc1ccc2scc(N3CCC(C)CC3)c(=O)c2c1,inactive: -29%
